Laboratory results: PubChem BioAssay AID463173 (ICCB-Longwood Screening Facility, Harvard Medical School, 2010)
About 4,300 (8.3%) of roughly 52,000 compounds were called active. Rule as the data show it: active = survival mostly below about 52% (no sharp cut-off); inactive = mostly above about 56%. Some of the results follow.

tested on: DeltatarO mutant; assay: S. aureus survival, RN4220 and DeltatarO strains – OD600, teichoic acid synthesis inhibitors, primary screen (AID 463173); settings: S. aureus RN4220 wild type/DeltatarO growth, OD600, 18 h, stronger effect = lower value, screened at 18.75 µg/mL (by protocol)

SMILES	survival
Cc1ccc(-c2cc(-c3ccc4c(c3)OCO4)c(C#N)c(N)n2)cc1	inactive: 88%
Cc1[nH]c2ccc(-c3nnc(SCCC#N)n3C)cc2c1C	inactive: 92%
COc1cc2c(cc1OC)C(Cc1ccc(O)cc1)N(C)CC2 (centres undefined)	inactive: 102%
O=C(NC1CSC/C1=N\O)c1ccccc1 (centres undefined)	inactive: 103%
COc1cc2nc(SCC(=O)Nc3c(C)cc(C)cc3C)n3nc(CCn4c(C)nc5ccccc54)nc3c2cc1OC	inactive: 81%
Cc1nn(CC(=O)Nc2ccccc2C(F)(F)F)c(=O)c2cccn12	inactive: 93%
CCCCN(CC)CCNC(=O)CN1C(=O)COc2ccc(S(=O)(=O)N3CCCC3)cc21	inactive: 94%
Cc1ccc(CCNC(=O)CCn2nc(-c3ccccc3)ccc2=O)cc1	inactive: 73%
Cn1c(=O)c(=O)n(C)c2cc(NC(=O)c3cccc(F)c3)c(Cl)cc21	inactive: 74%
CCCSCCCNC(=O)C1CCCN(c2nn3cc(-c4ccc(OC)cc4)nc3s2)C1 (centres undefined)	inactive: 73%
CCOc1ccccc1CNC(=O)CCCn1ncn2c(cc3occc32)c1=O	inactive: 75%
CCOc1ccc(C(=O)c2cn(CC(=O)Nc3ccc(F)cc3)c3cc4c(cc3c2=O)OCO4)cc1	inactive: 133%
COc1ccc(N(CC(=O)NCc2ccccc2Cl)S(=O)(=O)c2c(C)nn(C)c2C)cc1	inactive: 70%
COc1ccc(CCNC(=O)Cn2c(=O)nc(-c3ccccc3)c3ccccc32)cc1OC	inactive: 113%
Cc1ccc2cccc(NC(=O)COc3cc(C)c(Cl)c(C)c3)c2n1	inactive: 75%
CN(C)CCCN(C(=O)c1ccc(Br)s1)c1nc2ccc(F)cc2s1	active: -5%
CCS(=O)(=O)c1ncc(N(Cc2ccccc2)Cc2ccco2)c(C(=O)Nc2ccc(C)c(C)c2)n1	inactive: 52%
COCCNC(=O)CCc1c(C)nc2c(-c3ccc(F)cc3)c(C)nn2c1C	inactive: 85%
COc1cc(C(CC(=O)Nc2ccc(F)cc2F)N2Cc3ccccc3C2=O)cc(OC)c1OC (centres undefined)	inactive: 93%
COc1ccc(CCNC(=O)CCCCn2c(=O)c3ccccc3n(Cc3ccccc3C)c2=O)cc1OC	inactive: 95%
CCCCCn1cc2c(c1-c1ccc(Br)cc1)c(=O)n(C)c(=O)n2C	inactive: 79%
Cc1ccc(-c2cc(C(F)F)n3ncc(C(=O)Nc4cn(C)nc4C)c3n2)cc1	inactive: 89%
CCC(=O)Nc1ccc(CC)cc1-c1nc2ccccc2n(CC(=O)Nc2cccc(Cl)c2)c1=O	inactive: 70%
COc1cccc(C(=O)N2CCN(C3CCC(c4ccccc4)CC3)CC2)c1OC (centres undefined)	inactive: 96%
